Assay results reported in PubChem BioAssay AID1671188 (National Center for Advancing Translational Sciences (NCATS), 2021).
“And” between values parts separate entries of the source, which are not always exact repeats. Equal values may be shown once. Hit rate of the full screen: of about 100,000 compounds, about 250 (0.25%) were called active. The inconclusive results got no clear call from the source; some entries with a clear call stand among them for comparison. Calls come from the whole dose curve; as a rule, active = well fitted inhibition curve with a large enough effect; inconclusive = small, poorly fitted or top-dose-only effect; inactive = flat fitted curve, though single readings scatter. Potencies of inconclusive entries are doubtful fits and often do not repeat. Some structures have more than one record in an assay (separate samples or runs), and their calls can disagree.
Note: nearly all actives have a fitted effect of over 60% in size.
Potency is the fitted concentration of half-maximal effect; tags give direction and shape of the fitted curve.

Each molecule was assayed against Alanine aminotransferase 2 (Homo sapiens) (UniProt Q8TD30) (assay: Primary qHTS assay for inhibitors of Glutamate pyruvate transaminase 2 (GPT2)). Details: Recombinant GPT2, coupled pyruvate oxidase/HRP Amplex Red fluorescence; series mostly up to 57.7 µM.
Chain of UniProt Q8TD30 (Q8TD30 whole entry, looked up): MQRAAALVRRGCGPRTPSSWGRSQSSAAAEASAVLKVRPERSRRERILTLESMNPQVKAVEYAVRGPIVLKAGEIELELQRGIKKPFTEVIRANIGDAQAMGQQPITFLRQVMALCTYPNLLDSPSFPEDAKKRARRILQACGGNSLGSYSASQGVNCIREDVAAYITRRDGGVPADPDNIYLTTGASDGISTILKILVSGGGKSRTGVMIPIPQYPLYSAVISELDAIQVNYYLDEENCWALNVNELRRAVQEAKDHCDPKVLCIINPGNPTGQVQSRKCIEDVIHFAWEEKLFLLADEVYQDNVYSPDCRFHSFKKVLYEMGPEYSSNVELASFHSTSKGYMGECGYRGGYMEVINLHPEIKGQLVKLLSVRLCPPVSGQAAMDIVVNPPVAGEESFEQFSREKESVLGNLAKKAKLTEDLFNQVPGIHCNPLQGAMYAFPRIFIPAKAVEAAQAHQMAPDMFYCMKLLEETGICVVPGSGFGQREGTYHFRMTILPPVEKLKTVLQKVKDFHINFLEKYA
Summary of the method: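 GPT2 10ng/uL, a-KG 250uM, L-Ala 2mM, HEPES pH7.5 + 0.0001% Tween; 30 min RT. Then Amplex mix (PO/HRP/ThPP), 30 min RT dark, fluorescence. AOA 50uM used as positive control.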
With `COc1ccc(-c2nn(-c3ccc(F)cc3)c(OC(C)=O)c2-c2ccc(NC(C)=O)cc2)cc1OC` the Potency was inconclusive: 35.5 µM [inhibitor, single point]. In the case of `CC(C)N1C(=O)C2(CCCC2)C1C(=O)NCc1cccc(C(F)(F)F)c1` (stereo not given), the Potency is reported as “inactive”. `CCC(C)C(=O)Nc1c(C(=O)OC)n(CC2CCCO2)c2ncc(NC(C)CC(C)(C)O)cc12` (stereo not given) was tested, and the Potency was inconclusive: 39.8 µM [inhibitor, single point]. In the case of `CCC(=O)N1CCC(Cn2c(C)cnc2C2CC2)CC1`, the Potency is reported as inconclusive: 28.2 µM [inhibitor, single point]. With `Cc1cc(C(=O)NC2CCCN(c3ccnc4ccnn34)C2)ccc1Cl` (stereo not given) the Potency was “inactive”. For `O=C(NC1CCCCC1)c1ccc2nnc(C3CCCC3)n2c1`, the Potency was inconclusive: 56.2 µM [inhibitor, single point]. In the case of `CC1=C[C@@H](CN2CCC(C(N)=O)CC2)[C@H](C(C)C)C[C@H]1Cc1nnc(-c2ccc(N(C)C)cc2)o1`, the Potency is reported as “inactive”. In the case of `O=C(c1cc2ccccc2[nH]1)N1C[C@@H](CO)[C@H](c2nc(C3CC3)no2)C1`, the Potency is reported as “inactive”. For `O=C(NCCc1ccccc1F)c1ccc2nnc(-c3ccc(Cl)cc3)n2c1`, the Potency was “inactive”. `Cc1ccc(-c2ncc(C(=O)Nc3cccc(Br)c3)c(-c3ccncc3)n2)cc1` was tested, and the Potency was inconclusive: 7.08 µM [inhibitor, single point]. For `CCCCCNC(=O)CC(c1cccc(OC)c1OC)c1c[nH]c2c(CC)cccc12` (stereo not given), the Potency was “inactive”. For `O=c1c2nc(-c3ccccc3)ccc2ncn1-c1ccccc1`, the Potency was “inactive”. In the case of `CC1(C)C[C@@H]2C[C@@](C)(CN2C(=O)c2coc(COc3ccc4c(c3)OCO4)n2)C1`, the Potency is reported as inconclusive: 6.31 µM [inhibitor, single point]. For `O=C(NCc1cccs1)c1cc2c(s1)CCN(C(=O)c1ccc(F)cc1)C2`, the Potency was inconclusive: 1 µM [inhibitor, full curve, poor fit]. In the case of `CN(C)c1cccc(C(=O)N2CCC3(CC2)NC(=O)N(c2ccccc2)N3)c1`, the Potency is reported as inconclusive: 22.4 µM [inhibitor, partial curve, poor fit]. `CCOC(=O)Nc1ccc(NCc2ccc(F)cc2)nc1N` was tested, and the Potency was inconclusive: 3.16 µM [inhibitor, partial curve, poor fit] and active: 10 µM. With `CC(C)c1nc2n(n1)CCN(C(=O)c1ccc(Cl)cc1)C2` the Potency was “inactive”. `Cn1nccc1C(=O)N1CCC(N2CC3(CCCCC3)C2c2ccncc2)CC1` (stereo not given) was tested, and the Potency was “inactive”. `Cc1nc2c(OCC(=O)c3ccccc3)cccn2c(=O)c1-c1cc(C)n(-c2ccc(Cl)cc2)n1` was tested, and the Potency was “inactive”. `COc1ccc(C(=O)N2CCCCCCNC(=O)[C@@H]3C[C@@H](c4nc(C(C)C)no4)C[C@@H]32)cc1` was tested, and the Potency was inconclusive: 11.2 µM [inhibitor, partial curve, poor fit]. With `CC(=O)N1CCN(C(=O)c2cc(-c3ccc(Cl)cc3Cl)c3nncn3n2)CC1` the Potency was “inactive”. `COc1ccc(C(=O)Nc2ccc([C@H]3OCC(=O)N(C(C)C)[C@@H]3CO)cc2)cc1OC` was tested, and the Potency was “inactive”. For `COc1ccc(-c2onc(C)c2C(=O)NC2CCCc3ccccc32)cc1` (stereo not given), the Potency was “inactive”. In the case of `Cc1ccc2c(c1)N1C(=O)OC[C@@H]1CCN(C(=O)c1ccc(C(F)(F)F)cc1)C2`, the Potency is reported as “inactive”. For `Cn1ccnc1CN[C@@H]1CO[C@H](CNC(=O)N2CCOCC2)[C@H]1O`, the Potency was inconclusive: 10 µM [inhibitor, single point]. `O=C1NC2(CCCN(Cc3ccc(OC(F)(F)F)cc3)C2)Oc2ccccc21` (stereo not given) was tested, and the Potency was inconclusive: 35.5 µM [inhibitor, single point]. For `COc1ccc(CN2C[C@@H](F)[C@@H](OCc3nc4ccccc4o3)C2)cn1`, the Potency was “inactive”. In the case of `COc1cncc(-c2cc(C(=O)NCc3cccnc3)c3c(c2)N(C)CCO3)c1`, the Potency is reported as inconclusive: 12.6 µM [inhibitor, single point]. In the case of `O=C(C1CCCN1C(=O)C1CCCC1)N1CCCC(c2nc3ncccc3[nH]2)C1` (stereo not given), the Potency is reported as “inactive”. For `CCS(=O)(=O)N1CCC(Oc2cccc(C(=O)NCc3ccccn3)c2)CC1`, the Potency was “inactive”. `Cc1ccc(CNC(=O)CC2CCOCC2)o1` was tested, and the Potency was “inactive”. For `Cc1ccc(C(=O)NCC2CCN(c3cnn(C)c(=O)c3)C2)c(=O)n1C` (stereo not given), the Potency was inconclusive: 3.16 µM [inhibitor, partial curve, poor fit]. For `CCNC(=O)c1noc(-c2ccc[nH]c2=O)n1`, the Potency was inconclusive: 39.8 µM [inhibitor, single point]. With `CCCS(=O)(=O)N1CCC(CCOC)(NC(=O)NCC)CC1` the Potency was inconclusive: 0.708 µM [inhibitor, partial curve, poor fit]. In the case of `CN(C)c1cccc(C(=O)N2CCC(n3cc(-c4nc(-c5ccccc5)no4)nn3)C2)c1` (stereo not given), the Potency is reported as “inactive”. `CS(=O)(=O)N(Cc1ccco1)CC(O)Cn1c2ccccc2c2ccccc21` (stereo not given) was tested, and the Potency was inconclusive: 3.98 µM [inhibitor, full curve, poor fit]. With `CCCN1CCc2[nH]cnc2C12CCN(C(=O)Cn1cc(C)c(=O)[nH]c1=O)CC2` the Potency was inconclusive: 1.58 µM [inhibitor, partial curve, poor fit]. In the case of `Cc1nn(C)c2nc(NCCCN3CCNC(=O)C3)sc12`, the Potency is reported as inconclusive: 3.55 µM [inhibitor, single point]. With `CC(C)c1noc([C@H]2C[C@@H]3C(=O)NCCCCCCN(C(=O)Cc4cccnc4)[C@@H]3C2)n1` the Potency was inconclusive: 6.31 µM [inhibitor, single point]. In the case of `COc1cccc(CNC(=O)c2cc(-c3cccc(C(F)(F)F)c3)nc3c2cnn3C)c1`, the Potency is reported as inconclusive: 39.8 µM [inhibitor, single point]. For `CC(C)C(=O)Nc1ccc([N+](=O)[O-])c(C(F)(F)F)c1`, the Potency was inconclusive: 22.4 µM [inhibitor, single point]. `COc1ccc(C(=O)N2CCCN(c3cc(-c4ccc(Cl)cc4)[nH]n3)CC2)cc1F` was tested, and the Potency was inconclusive: 35.5 µM [inhibitor, single point]. `O=C(O)C1(O)CCN(c2ncc(F)c(N3CCOCC3)n2)CC1` was tested, and the Potency was inconclusive: 8.91 µM [inhibitor, single point]. For `O=C(O)c1ccccc1C(=O)N[C@H]1CO[C@H]2[C@@H]1OC[C@@H]2n1nnnc1-c1ccc2c(c1)OCO2`, the Potency was inconclusive: 28.2 µM [inhibitor, single point]. In the case of `COc1ccc(C2(C(=O)N3CCCC(c4nc(CCOCC5CC5)no4)C3)CC2)cc1` (stereo not given), the Potency is reported as “inactive”. With `CCOc1ccc(NC(=O)N2CCC(Oc3ncccc3C(=O)N3CCOCC3)C2)cc1` (stereo not given) the Potency was inconclusive: 6.31 µM [inhibitor, single point]. With `COc1ncccc1-c1cn(C)c(=O)n2cc(CNc3ccccc3)nc12` the Potency was inconclusive: 11.2 µM [inhibitor, single point]. With `C[C@@H]1CN(C(=O)c2cnc3c(O)cccn3c2=O)CC[C@@]1(O)C1CCC1` the Potency was inconclusive: 39.8 µM [inhibitor, single point]. In the case of `COc1cccc(S(=O)(=O)N2C[C@@H](F)C[C@H]2C(=O)N2CCOCC2)c1`, the Potency is reported as “inactive”. In the case of `O=C(c1ccccc1F)N1CCC(Oc2cccnc2)C1` (stereo not given), the Potency is reported as “inactive”. With `OC1CCCN(c2ccc(-c3nc(-c4cccc(C(F)(F)F)c4)no3)cn2)C1` (stereo not given) the Potency was inconclusive: 31.6 µM [inhibitor, single point]. For `N#Cc1ccc(CN2CCCC3(CC(c4ccccn4)=NO3)C2)cc1` (stereo not given), the Potency was inconclusive: 10 µM [inhibitor, single point]. For `O=C(c1ccc(Cl)cc1)N1CCOCC2(C1)CN([S+](=O)([O-])c1ccccc1)C2`, the Potency was “inactive”. For `C[C@H]1[C@@H]2[C@@H](O)C([C@H](C)C(=O)N3CCCCC3)CC[C@@]2(C)CC[C@@H]1NC(=O)c1ccccn1` (stereo not given in full), the Potency was inconclusive: 20 µM [inhibitor, partial curve, poor fit]. `CCCN(Cc1nc(-c2ccc(C(F)(F)F)cc2)oc1C)CC1CCCO1` (stereo not given) was tested, and the Potency was inconclusive: 10 µM [inhibitor, partial curve, poor fit]. In the case of `COc1ccccc1-c1cccc(C(=O)N2CCC[C@H]2C(=O)NC2CC2)c1`, the Potency is reported as “inactive”. `Clc1cccc(-c2cnc([C@@H]3COCCN3C3CCCCC3)[nH]2)c1` was tested, and the Potency was inconclusive: 56.2 µM [inhibitor, single point]. With `CC1(C)CCC2=C(O1)c1ccccc1C(=O)C2=O` the Potency was active: 3.43 µM and inconclusive: 1.78 µM [inhibitor, full curve, poor fit]. For `O=C(Cn1nc2c(cc1=O)CCCCC2)Nc1ccc(F)cc1`, the Potency was inconclusive: 39.8 µM [inhibitor, single point]. With `O=C1NCCCCCN(Cc2cccnc2)[C@@H]2CN(C(=O)C3CCCCC3)CC[C@@H]12` the Potency was inconclusive: 0.631 µM [inhibitor, full curve, poor fit]. With `CCCC1(CCC)CCC2(CCN(CCCN(CC)CC)C2)CC1` the Potency was inconclusive: 39.8 µM [inhibitor, partial curve, poor fit]. With `CCOc1ccccc1C(=O)N1CCN(c2cc(-c3ccc(F)cc3)[nH]n2)CC1` the Potency was “inactive”. With `COc1ccc(NC2CCCN(C(=O)C(=O)CC(C)C)C2)cc1OC` (stereo not given) the Potency was active: 22.4 µM. With `C[C@]1(CO)[C@H]2Cc3sc(NC(=O)c4ccc(F)cc4)nc3[C@@H](CC(=O)NC3CCCCC3)[C@]2(C)CC[C@H]1O` the Potency was “inactive”. `C[C@@H]1O[C@@H](O[C@@H]2\C=C/C=C\C=C/C=C\C[C@H](C)OC(=O)/C=C\[C@H]3O[C@@H]3C[C@H](O)C[C@]3(O)C[C@@H](O)[C@@H](C(=O)O)[C@H](C2)O3)[C@H](O)[C@H](N)[C@@H]1O` was tested, and the Potency was inconclusive: 22.4 µM [inhibitor, single point].
